# The list shows a part of the results.
# System: HepG2
# Experiment: cytotoxicity call (relative viability < 0.9)
# Settings: 10 µM
row,Compound,cytotoxicity call
1,C[C@@H]1CN([C@@H](C)CO)S(=O)(=O)c2ccc(C#Cc3cccc(F)c3)cc2O[C@H]1CN(C)S(=O)(=O)c1cn(C)cn1,inactive
2,CN(C)C(=O)CN1C[C@@H]2CCN(C(=O)[C@H]3CCCO3)CC[C@H]2S1(=O)=O,inactive
3,C[C@@H]1CCCCO[C@@H](CN(C)C(=O)Nc2ccccc2)[C@H](C)CN([C@H](C)CO)C(=O)c2cc(NC(=O)C3CCCCC3)ccc2O1,inactive
4,CON=C(C(=O)NC1C(=O)N2C(C(=O)O)=C(CSC(=O)c3ccco3)CSC12)c1csc(N)n1.Cl (stereo not given),inactive
5,COc1cc2c(cc1OC)CN(C(=O)[C@@H]1[C@H]3C(=O)O[C@H](c4ccccc4)[C@H](c4ccccc4)N3[C@H](c3ccc(OCCO)cc3)[C@@]13C(=O)Nc1ccc(C#CC4(O)CCCCCC4)cc13)CC2,active
6,C[C@@H]1CN([C@H](C)CO)C(=O)c2cc(NC(=O)Nc3ccc(C(F)(F)F)cc3)ccc2O[C@@H](C)CCCCO[C@@H]1CN(C)Cc1ccccc1,active
7,C[C@@H]1CN([C@@H](C)CO)C(=O)c2cccc(NC(=O)C3CCCCC3)c2O[C@@H]1CN(C)C(=O)Nc1ccc(C(F)(F)F)cc1,inactive
8,C[C@H](CO)N1C[C@H](C)[C@@H](CN(C)CC2CCCCC2)OCCCC[C@H](C)Oc2ccc(NC(=O)Cc3ccccc3)cc2C1=O,inactive
9,C[C@H](CO)N1C[C@H](C)[C@H](CN(C)S(=O)(=O)c2ccccc2)Oc2ccc(NC(=O)Cc3ccccc3)cc2CC1=O,inactive
10,O=C(C[C@@H]1CC[C@@H]2[C@H](COC[C@@H](O)CN2S(=O)(=O)c2ccc(Cl)cc2)O1)N[C@@H]1CCN(Cc2ccccc2)C1,inactive
11,COc1cccc(-c2cnc3c(c2)C(=O)N([C@H](C)CO)C[C@H](C)[C@H](CN(C)S(=O)(=O)c2ccc(F)cc2)O3)c1,inactive
12,COc1ccc(NC(=O)N(C)C[C@@H]2OCCCC[C@H](C)Oc3ccc(NS(=O)(=O)c4ccc(C)cc4)cc3C(=O)N([C@H](C)CO)C[C@@H]2C)cc1,inactive
13,Cc1noc(C)c1S(=O)(=O)N(C)C[C@H]1Oc2ccc(N(C)C)cc2CC(=O)N([C@H](C)CO)C[C@H]1C,inactive
14,COc1ccc(NC(=O)Nc2cccc3c2O[C@H](CN(C)CC2CCCCC2)[C@@H](C)CN([C@H](C)CO)C3=O)cc1,inactive
15,CC(C)NC(=O)N(C)C[C@@H]1OCCCC[C@@H](C)Oc2ccc(NC(=O)CCCCCC(=O)Nc3ccccc3N)cc2C(=O)N([C@H](C)CO)C[C@@H]1C,inactive
16,Cc1noc(C)c1NC(=O)N(C)C[C@H]1Oc2ccc(NS(=O)(=O)c3cn(C)cn3)cc2C(=O)N([C@H](C)CO)C[C@H]1C,inactive
17,C[C@@H]1CN([C@@H](C)CO)C(=O)c2cc(N(C)C)ccc2O[C@@H](C)CCCCO[C@H]1CN(C)S(=O)(=O)c1cn(C)cn1,inactive
18,C[C@@H]1CN([C@@H](C)CO)C(=O)c2cc(NC(=O)C3CCCCC3)ccc2O[C@@H](C)CCCCO[C@@H]1CN(C)C(=O)CCC(F)(F)F,inactive
19,C[C@H]1CCCCO[C@H](CN(C)S(=O)(=O)c2ccc(Cl)cc2)[C@@H](C)CN([C@@H](C)CO)C(=O)c2cc(NC(=O)Nc3ccc4c(c3)OCO4)ccc2O1,active
20,COc1ccc(S(=O)(=O)N(C)C[C@@H]2Oc3ncc(C#Cc4cccc(F)c4)cc3C(=O)N([C@H](C)CO)C[C@@H]2C)cc1,inactive

row,Compound,cytotoxicity call
1,CO[C@H]1O[C@H](CO)[C@@H](OC(=O)Nc2ccc3c(c2)OCO3)[C@H](OC(=O)Nc2ccc3c(c2)OCO3)[C@@H]1OC(=O)Nc1ccc2c(c1)OCO2,active
2,CCOC(=O)C(CCc1ccccc1)NC(C)C(=O)N1Cc2cc(OC)c(OC)cc2CC1C(=O)O.Cl (stereo not given),inactive
3,Cc1noc(C)c1NC(=O)Nc1ccc2c(c1)CC(=O)N([C@H](C)CO)C[C@H](C)[C@@H](CN(C)S(=O)(=O)c1c(C)noc1C)O2,inactive
4,C[C@@H]1CCCCO[C@H](CN(C)C(=O)Nc2ccc3c(c2)OCO3)[C@H](C)CN([C@H](C)CO)C(=O)c2cc(NC(=O)Nc3ccc(C(F)(F)F)cc3)ccc2O1,inactive
5,Cn1c(=O)c(F)c(Nc2ccc(I)cc2F)c2c(=O)n(C[C@@H](O)CO)cnc21,active
6,C[C@@H]1CN([C@@H](C)CO)C(=O)Cc2cc(NS(C)(=O)=O)ccc2O[C@@H]1CN(C)Cc1ccc2c(c1)OCO2,inactive
7,C[C@@H]1CN([C@H](C)CO)C(=O)Cc2cc(NS(=O)(=O)c3ccc(Cl)cc3)ccc2O[C@@H]1CN(C)Cc1ccc(-c2ccccc2)cc1,active
8,Cc1cc[nH]c(=O)c1,inactive
9,C[C@H](CO)NS(=O)(=O)c1ccnn1C,inactive
10,O=C(C[C@H]1C=C[C@H](NS(=O)(=O)c2ccc(F)cc2)[C@@H](CO)O1)N1CCC(Cc2ccccc2)CC1,inactive
11,C#CCN1CCS(=O)(=O)CC1,inactive
12,C[C@@H]1CN([C@H](C)CO)C(=O)c2cccc(NS(=O)(=O)c3ccc(F)cc3)c2O[C@H]1CN(C)Cc1ccc(Cl)c(Cl)c1,inactive
13,Cc1ccc(-c2ccc3c(c2)O[C@@H](CN(C)C(=O)CN(C)C)[C@@H](C)CN([C@@H](C)CO)S3(=O)=O)cc1,inactive
14,CC(=O)OCC[C@H](C)CCC=C(C)C,inactive
15,COc1ccc(S(=O)(=O)Nc2ccc3c(c2)C(=O)N([C@H](C)CO)C[C@H](C)[C@@H](CN(C)CC2CC2)O3)cc1,inactive
16,C[C@@H]1CN([C@@H](C)CO)C(=O)c2cc(NC(=O)Cn3cnnn3)ccc2O[C@@H]1CN(C)C(=O)Nc1ccccc1,inactive
17,C[C@H]1CCCCO[C@H](CN(C)C(=O)Nc2cccc3ccccc23)[C@@H](C)CN([C@@H](C)CO)C(=O)c2cc(NC(=O)c3ccncc3)ccc2O1,inactive
18,CO[C@H]1CN(C)C(=O)c2ccc(NS(=O)(=O)CC(F)(F)F)cc2OC[C@H](C)N(C(=O)c2ccc3c(c2)OCO3)C[C@@H]1C,inactive
19,COc1ccc(S(=O)(=O)Nc2cccc3c2O[C@@H](CN(C)S(=O)(=O)c2cn(C)cn2)[C@@H](C)CN([C@@H](C)CO)C3=O)cc1,inactive
20,CC(=O)NCCCC[C@@H]1NC(=O)[C@@H]2C[C@H](C(=O)NCCCCN(C)C)[C@H](c3ccc(O)cc3)N2C1=O,inactive
